This is one part of the list. Shown are side measurements of this screen, not its main read-out; they come without a call.
Key:
Test in all cases: Primary Screen for Target Class Profiling of Small Molecule Inhibitors of Methyltransferases
[1] = molecular target: Glycine N-methyltransferase (Homo sapiens) (UniProt Q14749); details: purified enzyme, MTase-Glo SAH luminescence; measured here: GNMT inhibition; at 40 µM; stronger effect = lower value
Summary of the method: (§1)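 Each enzyme was assayed with SAM and its substrate. SAH formation detected by MTase-Glo luminescence; single-point 40 uM screen[…].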

[2] = molecular target: Guanidinoacetate N-methyltransferase (Homo sapiens) (UniProt Q14353); details: purified enzyme, MTase-Glo SAH luminescence; measured here: GAMT inhibition; at 40 µM; stronger effect = lower value
Summary of the method: as §1

[3] = molecular target: Histamine N-methyltransferase (Homo sapiens) (UniProt P50135); details: purified enzyme, MTase-Glo SAH luminescence; measured here: HNMT inhibition; at 40 µM; stronger effect = lower value
Summary of the method: as §1

[4] = molecular target: Nicotinamide N-methyltransferase (Homo sapiens) (UniProt P40261); details: purified enzyme, MTase-Glo SAH luminescence; measured here: NNMT inhibition; at 40 µM; stronger effect = lower value
Summary of the method: as §1

[5] = molecular target: Phenylethanolamine N-methyltransferase (Homo sapiens) (UniProt P11086); details: purified enzyme, MTase-Glo SAH luminescence; measured here: PNMT inhibition; at 40 µM; stronger effect = lower value
Summary of the method: as §1
% is scaled to controls: 0 for no effect and ±100 for the full control effect.

Structure (SMILES) | activity change, negative = inhibition [1] [%] | activity change, negative = inhibition [2] [%] | activity change, negative = inhibition [3] [%] | activity change, negative = inhibition [4] [%] | activity change, negative = inhibition [5] [%]
CC(C)=CCCC1(C)C=Cc2c(c(C)cc3c2[nH]c2ccccc23)O1 (configuration not stated) | -1.02 | -4.7 | -8.35 | -17.5 | 0.808
C=CCNC(=O)C(NC(=O)c1ccc(OC)cc1)C1CCN(C(=O)CCc2ccccc2)CC1 (configuration not stated) | -0.374 | 2.89 | 2.99 | -3.74 | 9.31
COc1ccc(-c2nnc(-c3ccc(Cl)c(S(=O)(=O)N4CCCCCC4)c3)o2)cc1 | 13.1 | 2.5 | 11.4 | 7.59 | 8.78
CCC(C)NC(=O)c1cc2n(n1)CC(C)(C(=O)NC1CCCCCC1)N(C)C2=O (configuration not stated) | -5.5 | -2.5 | -0.248 | -1.86 | -0.217
COc1cccc(N2CCN(C(=O)C3CCCN(c4cnc5nccnc5c4)C3)CC2)c1 (configuration not stated) | -6.74 | -6.8 | -8.36 | -11 | -8.25
CCc1cccc(N2C(=O)c3ccccc3CC2(C)C(=O)NCc2ccccc2C)c1 (configuration not stated) | -1.94 | 0 | -6.49 | -7.52 | -0.514
CC(C)n1c(=O)c2ccc(C(=O)NC3CCCC3)cc2n2c(=O)n(CC(=O)NCc3ccccc3)nc12 | -3.27 | 1.26 | -4.02 | -17 | -3.9
CCc1ccccc1NC(=O)CSc1nnc2n(CCc3ccccc3)c(=O)c3ccccc3n12 | 1.03 | 0.001 | 9.73 | -3.11 | 4.06
Cc1ccc(NC(=O)Cn2nc3n(CCC(C)C)c(=O)c4ccccc4n3c2=O)c(Cl)c1 | 7.02 | 0.47 | 10.5 | 8.93 | 5.4
CCCn1c(=O)c2ccc(C(=O)NC3CCCC3)cc2n2c(=O)n(CC(=O)c3cccc(Cl)c3)nc12 | 0.596 | 2.81 | -1.93 | -5.43 | -0.577
Cc1cc2c(cc3n2CC(C)(C(=O)NC2CCCCCCC2)N(CCCN2CCCCCC2)C3=O)o1 (configuration not stated) | -0.587 | 4.38 | -9.47 | 4.04 | 2.55
CC1CCC(NC(=O)C2(C)Cn3c(nc4ccccc43)C(=O)N2Cc2ccc(OC(C)C)cc2)CC1 (configuration not stated) | -9.58 | -0.655 | -5.57 | -23.2 | -4.4
CC1CCN(CCCNC(=O)CCc2nnc3n(Cc4ccc(Cl)cc4)c(=O)c4ccccc4n23)CC1 | -11.2 | 4.97 | -66.1 | 2.33 | -6.11
Cc1ccc(Cn2c(=O)c3ccccc3n3c(=O)n(Cc4ccc(Cl)cc4)nc23)cc1 | 3.98 | 0 | 7.06 | 0.753 | 0.13
COCC(=O)N(C1CCOCC1)C1CCN(C(=O)Cc2ccc(Cl)cc2)CC1 | -0.662 | 2.04 | 1.55 | 1.01 | -0.722
O=C(N[C@H]1CCN2C(=O)[C@@H](Cc3c[nH]c4ccccc34)NC(=O)[C@H]12)c1cnccn1 | -3.38 | -4.24 | 2.01 | -10.6 | 8.36
CC(C)(C)NC(=O)N1CCC(c2nnc3n2C(C(=O)NCC2CCCCC2)CC3)CC1 (configuration not stated) | -3.93 | -3.92 | -2.19 | -9.33 | -5.21
CC1CCC(NC(=O)C2(C)Cn3c(cc4occc43)C(=O)N2C2CCCCCC2)CC1 (configuration not stated) | -3.84 | 6.93 | 0.037 | -4.76 | -1.62
Cc1cc(CN2CCC3(CC2)CCN(Cc2cscn2)CC3CO)on1 (configuration not stated) | -0.231 | 2.11 | 2.06 | -2.79 | 0.206

Structure (SMILES) | activity change, negative = inhibition [1] [%] | activity change, negative = inhibition [2] [%] | activity change, negative = inhibition [3] [%] | activity change, negative = inhibition [4] [%] | activity change, negative = inhibition [5] [%]
CC1=CCC2C(C)(C)CCC[C@]2(C)[C@@]12CC[C@](C)(CC(=O)O)O2 (some centres not stated) | 0 | -4.71 | 6.04 | -24.5 | -17.5
OCc1ccc(-c2nn(Cc3ccccc3)c3ccccc23)o1 | -45.8 | 10.7 | 1.57 | -7.71 | 3.42
CCOC(=O)CNC(=O)N1Cc2c(sc3c2CCCC3)-n2cccc2C1C(C)C (configuration not stated) | -6.85 | -3.79 | -3.27 | -15.4 | -5.29
CCc1cc2c(cc3n2CC(C)(C(=O)NC2CCCCCC2)N(CCOC)C3=O)s1 (configuration not stated) | 0.814 | 4.33 | 0.018 | -8.17 | -1.32
Cc1ccc(CNC(=O)C2(C)Cn3nc(C(=O)NCc4ccc(C)o4)cc3C(=O)N2C)cc1 (configuration not stated) | 3.86 | 0 | 4.01 | 3.66 | 2.54
O=S(=O)(NC1CCNCC1)c1cc(S(=O)(=O)c2ccccc2)ccc1C(F)(F)F | 7.93 | 8.39 | 10.6 | -7.14 | 2.97
Cc1ccc(C(=O)C(C)n2nc3n(C(C)C)c(=O)c4ccc(C(=O)NC(C)C)cc4n3c2=O)cc1C (configuration not stated) | 0.32 | 3.19 | 5.42 | -10.9 | -1.53
CC1(C(=O)NC2CCCCC2)Cn2c(ccc2-c2ccco2)C(=O)N1Cc1ccco1 (configuration not stated) | -18.4 | -8.9 | 6.03 | -6.63 | -6.9
Cn1c(SCC(=O)N2CCC[C@H]2C(=O)Nc2ccccc2-c2ccccc2)nc2ccccc21 | -3.84 | -3.25 | 5.7 | -23.5 | -6.06
CC(=O)OC1C(=O)C2(C)C(O)CC3OCC3(OC(C)=O)C2C(OC(=O)c2ccccc2)C2(O)CC(OC(=O)C(O)C(NC(=O)c3ccccc3)c3ccccc3)C(C)=C1C2(C)C (configuration not stated) | 1.13 | – | 3.17 | – | –
CC1CCCN1C(=O)c1cc(-c2ccc(C(F)(F)F)cc2)nc2c1cnn2C (configuration not stated) | -8.08 | -12.1 | -4.29 | -26.8 | -12.1
CCc1ccccc1NC(=O)CSc1nnc2n(Cc3ccc(F)cc3)c(=O)c3ccccc3n12 | 3.69 | 0.322 | 6.36 | -1.43 | 3.14
CC(C)(C)c1nc(C(=O)NCc2cccnc2)n2ccncc12 | -11.4 | -14.1 | -7.49 | -19.4 | -12.4
Cc1ccc(S(=O)(=O)c2nnn3c2nc(NC(C)c2ccccc2)c2ccccc23)cc1 (configuration not stated) | -3.34 | 4.38 | -0.098 | 0.225 | -5.16
CN(C(=O)Cn1nc2n(C)c(=O)c3ccc(C(=O)NC4CCCCC4)cc3n2c1=O)c1ccc(F)cc1 | 5.41 | 0.837 | 4.43 | 3.61 | 3.31
CC1CCC(NC(=O)C2(C)Cn3c(cc4sccc43)C(=O)N2Cc2ccco2)CC1 (configuration not stated) | 0.458 | 0 | -0.56 | -7.19 | -1.79
CN1C(=O)c2cc(C(=O)NCc3cccc(Br)c3)nn2CC1(C)C(=O)NC1CCCC1 (configuration not stated) | 0.258 | 3.31 | -1.7 | -0.564 | -2.57
Cc1ccc(Cn2c(=O)c3ccccc3n3c(=O)n(CC(=O)Nc4ccc(C)c(C)c4)nc23)cc1 | -3.16 | -1.25 | 1.12 | -6.73 | -0.552
Cc1ccc(Cn2c(=O)c3ccccc3n3c(SCC(=O)Nc4ccccc4C)nnc23)cc1 | 4.37 | 0 | 10.3 | 10.2 | 8.54

Structure (SMILES) | activity change, negative = inhibition [1] [%] | activity change, negative = inhibition [2] [%] | activity change, negative = inhibition [3] [%] | activity change, negative = inhibition [4] [%] | activity change, negative = inhibition [5] [%]
Cn1nc2n(c1=O)CCC(NS(=O)(=O)c1cccnc1)CC2 (configuration not stated) | -0.668 | -1.03 | -0.203 | 0.112 | -10.5
COc1ccc(CN2C(=O)c3cc4occc4n3CC2(C)C(=O)NC2CCCCCC2)cc1 (configuration not stated) | -1.83 | 0 | 0.373 | -10.2 | -3.39
CN(Cc1ccccc1)c1ncnc2c1CCN(C(=O)[C@@H](N)CO)CC2 | -7 | -6.9 | -2.59 | -10.4 | -7.67
CC1(C(=O)NC2CCCCCC2)Cn2c(cc3occc32)C(=O)N1CCN1CCCCCC1 (configuration not stated) | -1.53 | 3.31 | -7.54 | -3.43 | -2.54
Cc1ccc(N2C(=O)c3cc4occc4n3CC2(C)C(=O)NC2CCC(C)CC2)cc1 (configuration not stated) | -1.17 | 0 | 4.45 | 2.97 | 0.426
Cc1ccc(CN2CCNCC2)cc1NC(=O)CNc1ccc(F)c(F)c1 | 1.54 | 5.02 | -0.634 | -9.39 | -8.65
CCCn1c(=O)c2ccccc2n2c(SCc3cccc(F)c3)nnc12 | -17.1 | 1.01 | -0.232 | -13.1 | -2.36
O=C(CCc1nnc2n(CCc3ccccc3)c(=O)c3ccccc3n12)N1CCN(c2ncccn2)CC1 | -2.64 | 2.91 | 0.136 | 2.35 | -6.02
C=CC(C)(O)CC/C=C(\C)C(=O)OCC1OC(OC2CCC3(C)C(CCC4(C)C3CC=C3C5CC(C)(C)C(O)CC5(C(=O)O)CCC34C)C2(C)C)C(O)C(OC2OC(CO)C(O)C(OC3OC(CO)C(O)C(OC4OC(COC5OC(CO)C(O)C(O)C5O)C(O)C(O)C4O)C3O)C2O)C1O (configuration not stated) | 2.28 | 6.42 | 13.3 | -6.76 | 8.38
CCC(C)C(C(=O)O)N1Cc2c(OCC=C(C)C)c(C)c(OC)c(C(=O)O)c2C1=O (configuration not stated) | 3.86 | 1.24 | 9.22 | -11.7 | -4.6
COC[C@@H]1OCCN(S(=O)(=O)c2cc(OC)ccc2OC)[C@H]1c1ccccc1 | -1.13 | 0 | 5.38 | 0 | 3.05
CC1(C)C[C@H](NCc2ccc(CO)o2)[C@@]2(CCC(=O)N3CCOCC3)CC[C@](C)(O)C[C@@H]12 | -2.03 | -4.19 | 1.11 | 2.09 | 0.968
COCCN(CC1CCN(Cc2ccccc2F)CC1)C(=O)c1cc[nH]c1C | -3.63 | 1.72 | -0.904 | 2.04 | 15
C=C1CCC2C(C)(C(=O)O)CC(O)CC2(C)C1CC/C(C)=C/C(=O)O (configuration not stated) | 0 | 7.67 | 8.93 | -7.47 | 3.85
COc1ccc2cc3n(c2c1)CC(C)(C(=O)NC1CCCC1)N(c1ccccc1C)C3=O (configuration not stated) | -0.711 | 0.25 | 5.71 | -2.81 | -0.505
CC(C)CN1C(=O)C(C)(C)[S+](=O)([O-])[C@@H]2CN(c3ccc(OC(F)(F)F)cc3)C[C@@H]21 | -0.653 | 0.197 | 1.59 | 0.802 | -7.68
C=Cc1ccc(Cn2nc3n(CCC)c(=O)c4ccc(C(=O)NC5CCCC5)cc4n3c2=O)cc1 | -10.8 | 0.334 | -1.5 | -7.95 | -1.43
Cc1ncccc1OC1(C(=O)N2CCCC2c2nc(C(C)C)no2)CCNCC1 (configuration not stated) | -2.86 | -1.79 | 1.03 | -8.99 | -6.28
CCCn1c(=O)c2ccc(C(=O)NC(C)C)cc2n2c(=O)n(CC(=O)Nc3ccccc3)nc12 | 3.13 | 1.67 | 2.59 | -0.232 | 0.312

From PubChem BioAssay AID1745853 (National Center for Advancing Translational Sciences (NCATS), 2022)
